{
  "source": "PubChem BioAssay AID1465",
  "about": "(SRMLSC, 2008)",
  "note": "Among all 220,000 compounds or so, about 160 (0.073%) were called active. Inconclusive means that the source gave no clear call. Such entries were picked first, then a sample of the others.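 The calls were made as follows: active = fold induction of absorbance versus untreated yeast above a set limit, then at least 30% activation at any dose in follow-up; inconclusive = repeats straddling the limit, or above it without dose testing; inactive = fold induction below the set limit.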",
  "data": [
    {"assay": "enhancers of respiration in Yfh1-depleted yeast, dose response, Friedreich's ataxia, plus single-dose screen (AID 1465)", "settings": "S. cerevisiae Yfh1-off respiration, WST-1 reduction, 72 h; at 50 µM; active compounds read high", "values": [
      {"compound": "CCCN1C=CC(=C/C=C(\\C#N)C(=O)OCC)C=C1", "fold induction": "inconclusive: 2.07"},
      {"compound": "Cn1c(N/N=C/c2c[nH]c3ccccc23)nc2ccccc21", "fold induction": "inconclusive: 1.18"},
      {"compound": "COc1cc(OC)c(-c2c3cc(O)c(=O)cc-3oc3cc(O)c(O)cc23)cc1OC", "fold induction": "inconclusive: 1.53"},
      {"compound": "CCOc1ccc(C2=C(C=Nc3c(C)n(C)n(-c4ccccc4)c3=O)C(c3ccc(F)cc3)c3ccccc3O2)cc1", "note": "(stereo not drawn)", "fold induction": "inconclusive: 1.22"},
      {"compound": "CC(C)n1c(SCC(=O)Nc2nc3ccccc3s2)nc2c1c(=O)n(C)c(=O)n2C", "fold induction": "inconclusive: 1.18"},
      {"compound": "CC(=O)Oc1cccc(-c2nc3ccccc3c(=O)o2)c1", "fold induction": "inactive: 0.89"},
      {"compound": "O=[N+]([O-])c1ccc(C2Nc3cccc4cccc(c34)N2)cc1", "fold induction": "inconclusive: 1.33"},
      {"compound": "COc1ccc(/C=c2\\s/c(=C/C(=O)c3ccc(C)cc3)[nH]c2=O)c(OC)c1", "fold induction": "inconclusive: 1.33"},
      {"compound": "CCN(CC)S(=O)(=O)c1ccc2nnn(OCC(=O)Nc3cccc(C#N)c3)c2c1", "fold induction": "inconclusive: 1.34"},
      {"compound": "COC(=O)C1=C(C(=O)OC)SC2(S1)C(C(=O)OC)=C(C(=O)OC)SC1=C2c2cc(C)ccc2NC1(C)C", "fold induction": "inconclusive: 1.23"},
      {"compound": "CC(=O)c1cc2c(cc1NC(=O)CSc1nc3ccccc3o1)OCO2", "fold induction": "inconclusive: 1.14"},
      {"compound": "CNc1nc2c(c(=O)[nH]c(=O)n2C)n1CCOC", "fold induction": "inactive: 1.02"},
      {"compound": "C=CCNc1ncnc2c1cnn2-c1ccc(C)cc1C", "fold induction": "inconclusive: 1.33"},
      {"compound": "CCNC(=O)C(=O)N/N=C/c1cc([N+](=O)[O-])ccc1O", "fold induction": "inconclusive: 1.33"},
      {"compound": "Cc1coc2c1C(=O)C(=O)c1c-2ccc2c1CCCC2(C)C", "fold induction": "inactive: 1.54"},
      {"compound": "Cn1nnnc1P(=O)(c1ccccc1)c1ccccc1", "fold induction": "inactive: 1.15"},
      {"compound": "COc1ccccc1C(CC(=O)N1CCCC1)c1ccc2c(c1)OCO2", "note": "(stereo not drawn)", "fold induction": "inactive: 0.99"},
      {"compound": "CC(=O)c1cccc(NC2c3ncccc3C(=O)N2Cc2ccco2)c1", "note": "(stereo not drawn)", "fold induction": "inconclusive: 1.34"},
      {"compound": "CCOC(=O)C1CCN(C(=O)Nc2ccc3nc(-c4ccco4)c(-c4ccco4)nc3c2)CC1", "fold induction": "inconclusive: 1.46"},
      {"compound": "Cn1cccc1/C=C1\\SC(=S)N(Nc2ccccc2)C1=O", "fold induction": "inactive: 1.02"},
      {"compound": "Cc1ccc(C(=O)CSC2=C(C#N)C(c3ccco3)C3=C(CC(C)(C)CC3=O)N2)cc1", "note": "(stereo not drawn)", "fold induction": "inconclusive: 1.21"},
      {"compound": "COC(=O)C1C(O)C(C)C(O)C(C)(O)/C=C\\C=C(/C)C(=O)Nc2c(C)c(OC(C)=O)c3c(c2O)C(=O)C(C)=C2OCOC(=C23)/C(C)=C/C(C)(O)C(O)C(C)C1O", "note": "(stereo not drawn)", "fold induction": "inconclusive: 1.33"},
      {"compound": "Cc1c(Nc2ccc(C=O)cc2)c(=O)n(-c2ccccc2)n1C", "fold induction": "inactive: 1.09"},
      {"compound": "CCOc1ccc2c(c1)C(c1ccc(C)cc1)=NNC(c1ccc(C)cc1)=N2", "fold induction": "inconclusive: 1.14"},
      {"compound": "O=C(O)COc1ccccc1C(Nc1ccccn1)c1cc(Cl)c2cccnc2c1O", "note": "(stereo not drawn)", "fold induction": "inactive: 1.19"},
      {"compound": "Cc1cccc(CSc2ncnc3nc[nH]c23)c1", "fold induction": "inconclusive: 1.36"},
      {"compound": "Cc1ccc(-n2ncc3c(=O)n(CC(=O)Nc4cccc(Cl)c4)cnc32)cc1C", "fold induction": "inconclusive: 1.18"},
      {"compound": "COc1cc([N+](=O)[O-])cc(/C=N/NC(=O)CSc2ccccn2)c1O", "fold induction": "inconclusive: 1.33"},
      {"compound": "O=C(Nc1cccc(-c2nnc(-c3ccco3)o2)c1)C(c1ccccc1)c1ccccc1", "fold induction": "inconclusive: 1.06"},
      {"compound": "CCCCC(=O)NC(=S)NNC(=O)CC", "fold induction": "inconclusive: 2.21"},
      {"compound": "CCC(=O)NNc1ncnc2c1cnn2C", "fold induction": "inactive: 1.06"},
      {"compound": "Cc1cccc(C)c1NC(=O)COC(=O)c1c2c(nc3ccccc13)/C(=C\\c1ccc3c(c1)OCO3)CCC2", "fold induction": "inconclusive: 1.34"},
      {"compound": "Cc1ccc(SCC(=O)Nc2ccc(-c3nnc(-c4ccco4)o3)cc2)cc1", "fold induction": "inconclusive: 1.15"},
      {"compound": "Cc1ccc(-n2nc3cc(C)c(N)cc3n2)cc1", "fold induction": "inconclusive: 1.08"},
      {"compound": "Cc1ccccc1C(=O)NNC(=O)C(C)N1C(=O)c2ccccc2C1=O", "note": "(stereo not drawn)", "fold induction": "inactive: 1.01"},
      {"compound": "Cn1ncc(C(=O)Nc2ccc(OC(F)(F)F)cc2)c1-n1cccc1", "fold induction": "inconclusive: 1.33"},
      {"compound": "COc1cc(/C=C/c2sc3ccccc3[n+]2CCCS(=O)(=O)[O-])ccc1O", "fold induction": "inconclusive: 1.74"},
      {"compound": "Cc1ccc(NC2=C(Cl)C(=O)c3ccccc3C2=O)cc1", "fold induction": "inactive: 1.27"},
      {"compound": "COc1cc(NC(=O)C2=C(N3CCOCC3)/C(=C\\c3ccc(N(C)C)cc3)CCC2)cc(OC)c1OC", "fold induction": "inconclusive: 1.34"},
      {"compound": "Cc1ccc(-c2cc(C(=O)N/N=C/c3c(C)nn(C)c3C)c3ccccc3n2)cc1C", "fold induction": "inconclusive: 1.25"},
      {"compound": "Cn1ncc2c(Nc3ccccc3Br)ncnc21", "fold induction": "inconclusive: 1.36"},
      {"compound": "O=C(/C=C/c1ccccc1)c1cc(Br)ccc(=O)c1O", "fold induction": "inconclusive: 1.46"},
      {"compound": "O=C(NC1CCCCC1)C(c1cccs1)N(C(=O)c1ccco1)c1ccc2c(c1)OCCO2", "note": "(stereo not drawn)", "fold induction": "inconclusive: 1.18"},
      {"compound": "Cc1nn(-c2ccccc2)c2[nH]c(=O)c(CNc3ccc(N4CCOCC4)cc3)cc12", "fold induction": "inconclusive: 1.29"},
      {"compound": "NC(=S)Nc1ccccc1Br", "fold induction": "inactive: 1"},
      {"compound": "CCCn1c(N)c(C(=O)CSc2nc3ccccc3n2CCC#N)c(=O)n(C)c1=O", "fold induction": "inconclusive: 1.26"},
      {"compound": "CC1CCN(C(=S)c2cn(Cc3ccccc3F)c3ccccc23)CC1", "fold induction": "inconclusive: 1.14"},
      {"compound": "CC(=O)SCC(=O)N=c1sc2cc(F)ccc2n1C", "fold induction": "inconclusive: 1.33"},
      {"compound": "O=c1cc(-c2ccccc2)[nH]n1-c1nc2ccccc2[nH]1", "fold induction": "inconclusive: 1.36"},
      {"compound": "COc1ccc(Cn2c(O)c(C=Nc3ccc(OC)cc3)c3ccccc3c2=O)cc1", "fold induction": "inactive: 1.13"},
      {"compound": "CC(C)CC(=O)NC(c1cccs1)c1ccc2cccnc2c1O", "note": "(stereo not drawn)", "fold induction": "inactive: 0.99"},
      {"compound": "O=[N+]([O-])c1ccc(/C=N/Nc2nc(NCc3ccccc3)nc(N3CCOCC3)n2)cc1", "fold induction": "inactive: 1.08"},
      {"compound": "O=C(COC(=O)CCSc1ccc(Cl)cc1)NCc1ccccc1Cl", "fold induction": "inconclusive: 1.35"},
      {"compound": "O=c1cc(-c2ccc(O)cc2)oc2c(O)c(O)c(O)c(O)c12", "fold induction": "inconclusive: 1.31"},
      {"compound": "O=C1C(Cl)=C(NS(=O)(=O)c2ccc([N+](=O)[O-])cc2)C(=O)c2ccccc21", "fold induction": "inconclusive: 1.35"},
      {"compound": "Cc1ccc(-n2c(SCC(=O)Nc3ccc4c(c3)OCO4)nnc2-c2cccs2)cc1", "fold induction": "inconclusive: 1.04"},
      {"compound": "CC(=NC1CC1)c1c(-c2ccccc2)[nH]n(-c2nc3ccccc3s2)c1=O", "fold induction": "inactive: 0.93"},
      {"compound": "CC(C)n1c(SCC(=O)c2ccc3c(c2)OCCO3)nc2c1c(=O)n(C)c(=O)n2C", "fold induction": "inactive: 1.06"},
      {"compound": "COc1ccc(CCNC(=S)N2CCC(Cc3ccccc3)CC2)cc1OC", "fold induction": "inconclusive: 1.34"},
      {"compound": "O=C(Nc1ccc(O)cc1)c1ccc(C(=O)c2ccccc2)o1", "fold induction": "inconclusive: 1.37"},
      {"compound": "O=C(CCCN1C(=O)C2CCCCN2C1=O)N1CCN(c2ccc([N+](=O)[O-])cc2)CC1", "note": "(stereo not drawn)", "fold induction": "inconclusive: 1.34"},
      {"compound": "O=C(NNC1=C(C(=O)C(F)(F)F)CCC1)c1ccccc1Cl", "fold induction": "inactive: 1.02"},
      {"compound": "O=C(Nc1ccc(N2CCCC2)cc1)C(c1ccccc1)c1ccccc1", "fold induction": "inconclusive: 1.31"},
      {"compound": "COc1cc2c(cc1NC(=O)C(C)OC(=O)/C=C/c1ccc(OC(F)F)cc1)oc1ccccc12", "note": "(stereo not drawn)", "fold induction": "inactive: 1.12"},
      {"compound": "COc1cc(/C=N/N=C(N)N)ccc1OCc1ccc(Cl)cc1", "fold induction": "inconclusive: 1.34"},
      {"compound": "Cc1cc(C)n2[nH]c(=O)c(N=Nc3cccc(Cl)c3)c2n1", "fold induction": "inconclusive: 1.29"},
      {"compound": "Cc1ccc(NC(=O)CSc2ncc(-c3ccccc3)n2C(=O)c2ccccc2)cc1", "fold induction": "inconclusive: 1.41"},
      {"compound": "Cc1cccc(NC(=S)NNC(=O)COc2ccc(Cl)cc2Cl)c1", "fold induction": "inactive: 1.14"},
      {"compound": "CC(C)=CCC1=C(OCC(=O)O)C(=O)c2ccccc2C1=O", "fold induction": "inconclusive: 2.63"},
      {"compound": "CC(C)CC(=O)NC(=S)NNC(=O)c1ccc(NC(=O)C2CCCCC2)cc1", "fold induction": "inconclusive: 1.34"},
      {"compound": "Cc1ccccc1Cc1c(C)nc2c(C(=O)NCc3ccc4c(c3)OCO4)cnn2c1C", "fold induction": "inconclusive: 1.34"},
      {"compound": "COc1ccc(OCC2CNC(=O)O2)cc1", "note": "(stereo not drawn)", "fold induction": "inconclusive: 1.33"},
      {"compound": "NS(=O)(=O)c1ccc(N/N=C/c2ccccc2C(=O)O)c([N+](=O)[O-])c1", "fold induction": "inconclusive: 1.33"},
      {"compound": "O=C(Nc1cccnc1Cl)C1c2ccccc2Oc2ccccc21", "fold induction": "inconclusive: 1.17"},
      {"compound": "CCn1c(C)c(C(C)=O)c(N2CCN(c3cccc(Cl)c3)CC2)nc1=S", "fold induction": "inconclusive: 1.19"},
      {"compound": "CCN(C(=O)CSc1ncccc1C(=O)Oc1cccc([N+](=O)[O-])c1)c1cccc(C)c1", "fold induction": "inactive: 0.93"},
      {"compound": "CC(=O)N1CCN(c2ccc(NCc3ccc4c(c3)OCO4)cc2)CC1", "fold induction": "inconclusive: 1.26"},
      {"compound": "O=C(NN1C(=O)/C(=C/C=C/c2ccco2)SC1=S)c1ccccc1O", "fold induction": "inconclusive: 1.34"},
      {"compound": "Cc1cc(C)cc(NC(=S)NCCc2c[nH]c3ccccc23)c1", "fold induction": "inconclusive: 0.97"},
      {"compound": "CCOC(=O)/C(C(N)=NCC(C)C)=C(/O)c1ccccc1", "fold induction": "inactive: 0.925"},
      {"compound": "CC(C)(C)c1cc(=O)n(-c2ccccc2)[nH]1", "fold induction": "inconclusive: 1.34"},
      {"compound": "Cn1c(C(=O)NCc2cccnc2)cc2sc(Cl)cc21", "fold induction": "inconclusive: 1.41"},
      {"compound": "C/C(=N\\NC(=S)Nc1cccc(C)c1)c1ccccc1", "fold induction": "inconclusive: 1.11"},
      {"compound": "CC1=NN(c2nc(-c3ccccc3)cs2)C(=O)C1", "fold induction": "inconclusive: 1.89"},
      {"compound": "N#Cc1c(NC(=O)CCN2C(=O)c3ccccc3C2=O)oc(-c2ccccc2)c1-c1ccccc1", "fold induction": "inconclusive: 1.19"},
      {"compound": "COc1ccc(/C=C/C(=O)NC(=S)NNC(=O)c2ccco2)cc1", "fold induction": "inconclusive: 1.18"},
      {"compound": "CC(C)c1ccc(S(=O)(=O)/N=C2/C=CC(=O)c3ccccc32)cc1", "fold induction": "inconclusive: 1.35"},
      {"compound": "CCC(=O)NC(c1ccco1)c1cc(Cl)c2cccnc2c1O", "note": "(stereo not drawn)", "fold induction": "inactive: 1.13"}
    ]}
  ]
}
